Variants at the background level are over-represented here.
B1: TPR 5TU (parent)
chain: GGAUCUUCUCGAUCUAACAAAAAAGACAAAUCUGCCACAAAGCUUGAGAGCAUCUUCGGAUGCAGAGGCGGCAGCCUUCGGUGGCGCGAUAGCGCCAACGUUCUCAACUAUGACACGCAAAACGCGUGCUCCGUUGAAUGGAGUUUAUCAUG

Variants of: B1
Assay: polymerase ribozyme fitness, log enrichment relative to wild type (log ratio); higher = more active; in vitro selection for triplet polymerase activity
Outline: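 Each subunit of a heterodimeric triplet polymerase ribozyme was represented by a PCR-built, transcribed mutant library that underwent triplicate single-round in vitro selection with frozen incubation at −7 °C. Extended constructs were recovered by gel excision, streptavidin-bead capture and RT-PCR, and Illumina sequencing of input and output libraries kept genotypes with ≥10 input reads and ≥1 read per output. Fitness is the logarithm of genotype enrichment relative to wild-type enrichment, from inverse-variance-weighted replicate averages, with a logarithm base of 2.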

| Variant | polymerase ribozyme fitness (log ratio) |
| --- | --- |
| A37U A41G A91U C95U G143C | ≤ -4.2 |
| A37U A41G U55G C85U G128U C129U | ≤ -4.2 |
| A37U A47C A60U G80U A119U C125G | ≤ -4.2 |
| A37U A47G C87A C103U | ≤ -4.2 |
| A37U A49C | ≤ -4.2 |
| A37U A49U U55A U56A U127A | ≤ -4.2 |
| A37U A52C C96G A113U U135C | ≤ -4.2 |
| A37U A52C C116G | -2.94 |
| A37U A52G G62C C76A G124U | ≤ -4.2 |
| A37U A60G A91G G143C | ≤ -4.2 |
| A37U A60G C76U G88A | ≤ -4.2 |
| A37U A64C U135C | ≤ -4.2 |
| A37U A66U C96G | ≤ -4.2 |
| A37U A113U C116U G136C | ≤ -4.2 |
| A37U C43U C75G G88A C114U | ≤ -4.2 |
| A37U C51U A97C | -2.02 |
| A37U C54A U77A C85G U90G C118G A138G | ≤ -4.2 |
| A37U C54U C95G U134C G136C G141C | ≤ -4.2 |
| A37U C57A G70U G71A A137G | ≤ -4.2 |
| A37U C57U A60C C87G C95U C96G A106U G136A G141C | ≤ -4.2 |
| A37U C79U C116A | -4.15 |
| A37U C103G A115U G128U | ≤ -4.2 |
| A37U G42A C54G G86U | ≤ -4.2 |
| A37U G42A G88C | ≤ -4.2 |

| Variant | polymerase ribozyme fitness (log ratio) |
| --- | --- |
| A37U G42U U55A C75A G136A | ≤ -4.2 |
| A37U G48A U56A U77G G92A G126A A142G G143C U151A | ≤ -4.2 |
| A37U G48U U56A G86C A147C | ≤ -4.2 |
| A37U G50A U61A A89C U109G | ≤ -4.2 |
| A37U G50C A91U A106G U135G | ≤ -4.2 |
| A37U G58A G62C C72U C79G G94A C123U G124A C131A | ≤ -4.2 |
| A37U G67U G92C C96G A110U A150G | ≤ -4.2 |
| A37U G70C C85U G92A | ≤ -4.2 |
| A37U G70C C87G A137U | ≤ -4.2 |
| A37U G74A C93U G133U | ≤ -4.2 |
| A37U G74U C95G U102G C105G | ≤ -4.2 |
| A37U G86U A107C | ≤ -4.2 |
| A37U U44A C95U C108A | ≤ -4.2 |
| A37U U45C G86A U104A A119U G124U | ≤ -4.2 |
| A37U U53A C75G C85G | ≤ -4.2 |
| A37U U55A G94A C95G G140C | ≤ -4.2 |
| A37U U55G C95G U111C G136A G143A | ≤ -4.2 |
| A37U U55G G71U G83U A89U A142C | ≤ -4.2 |
| A37U U78G G94U G133U | ≤ -4.2 |
| A37U U90C A122G | ≤ -4.2 |
| A37U U146G | -2.19 |
| C38A A39C A40G A60G G65C C87A G94U C99G | ≤ -4.2 |
| C38A A39G G42C | ≤ -4.2 |
| C38A A39U C85G U111G U146A | ≤ -4.2 |

| Variant | polymerase ribozyme fitness (log ratio) |
| --- | --- |
| C38A A41C C54G U77G C93A A121C A122C | ≤ -4.2 |
| C38A A49C | ≤ -4.2 |
| C38A A49C C76G C87A G141C | ≤ -4.2 |
| C38A A49C G67A C79G | ≤ -4.2 |
| C38A A49G G50C U56G G143C | ≤ -4.2 |
| C38A A49U C93A C96U U101G A138C | ≤ -4.2 |
| C38A A73U G80C G81C C95G G117A G133U G141C | ≤ -4.2 |
| C38A A97C A110G A119G G136A A142G U148A | ≤ -4.2 |
| C38A C75G C76A C87G C105U A107U | ≤ -4.2 |
| C38A C76G G92C | ≤ -4.2 |
| C38A C76U | -0.21 |
| C38A C85U A107G G124C | ≤ -4.2 |
| C38A C85U C125A G126U | ≤ -4.2 |
| C38A C95A U135A | -1.76 |
| C38A C105G C118A C129A | ≤ -4.2 |
| C38A G42C G59U A64C C85U A106U C125G | ≤ -4.2 |
| C38A G46A G92C C93A C96U G126C U130A | ≤ -4.2 |
| C38A G58A A60G C93U C95A C125G | -3.67 |
| C38A G58U U77C U78A C96A | ≤ -4.2 |
| C38A G59A G86A C99G | ≤ -4.2 |
| C38A G67U G81A G84U G141C A147U | ≤ -4.2 |
| C38A G68C U144G | ≤ -4.2 |
| C38A G70A C99G U144C | ≤ -4.2 |
| C38A G83U C96G U144A | -0.619 |

| Variant | polymerase ribozyme fitness (log ratio) |
| --- | --- |
| C38A G86U A107G C116U U139G U145A | ≤ -4.2 |
| C38A G94A | -0.134 |
| C38A U55A C93G C149U | ≤ -4.2 |
| C38A U55G G71C C95G C118U C131U | ≤ -4.2 |
| C38A U56A C69U G92U A97C C99G | ≤ -4.2 |
| C38A U56A C87G | ≤ -4.2 |
| C38A U56A G128U | -3.69 |
| C38A U77A C79U C87A C125G | ≤ -4.2 |
| C38A U77A C123A | ≤ -4.2 |
| C38A U82A G84U A120C | -1.37 |
| C38A U109A C114U C116G | ≤ -4.2 |
| C38G A40C A60C G86U G100U U111A G136U | ≤ -4.2 |
| C38G A47C G88A C105U A122U G136A | ≤ -4.2 |
| C38G A49C G67U C79G A122G C129G G140A G141A | ≤ -4.2 |
| C38G A49C U56G C99U C131U | ≤ -4.2 |
| C38G A60C U82G C87U G94C C99G A137U G141C | ≤ -4.2 |
| C38G A66G U77G G83U A107U G128C A137U | ≤ -4.2 |
| C38G A73U C87G G124U U148A | ≤ -4.2 |
| C38G A91G U101A | ≤ -4.2 |
| C38G A98U A122C G141C | -2.06 |
| C38G A110C U145A | ≤ -4.2 |
| C38G C51U | -0.547 |
| C38G C57G C63A A66C C125G G152U | ≤ -4.2 |
| C38G C85A G94U C103G | -2.31 |

| Variant | polymerase ribozyme fitness (log ratio) |
| --- | --- |
| C38G C85U C95U C103G A113G C114U A142C | ≤ -4.2 |
| C38G C85U C108A G112C | ≤ -4.2 |
| C38G C87U G100C A137U C149G | ≤ -4.2 |
| C38G C95A A150U | -0.802 |
| C38G G50C G88C U102G U104G U145G U148G | ≤ -4.2 |
| C38G G62U G83U C95A C99U C105G A137C | ≤ -4.2 |
| C38G G83C C93A A98G C129U | ≤ -4.2 |
| C38G G86U C118U | -2 |
| C38G U44A G65C | ≤ -4.2 |
| C38G U45A C72U C87U A115C | ≤ -4.2 |
| C38G U53A U56A A89U G92A A142C C149G | ≤ -4.2 |
| C38G U55A C96A A150G | -2.63 |
| C38U A39G A52U C75U G92A C108G U148G | ≤ -4.2 |
| C38U A40C G62C G65U G74C C75U C95U | ≤ -4.2 |
| C38U A40G A49C G81U C95A A113G G126A A138C | ≤ -4.2 |
| C38U A41C A52C A60G C85U C96U G141A A142C | ≤ -4.2 |
| C38U A41U G50C C75G A107U | ≤ -4.2 |
| C38U A47C C63U A66C C87G U146C | ≤ -4.2 |
| C38U A47C C93A C125U | -3.16 |
| C38U A49C A60C U82G G83A | ≤ -4.2 |
| C38U A49C C85U G92U C103A U111C | ≤ -4.2 |
| C38U A52G G71C G88A C96G G100A A106C U111A A137C | ≤ -4.2 |
| C38U A52U C87A G136A | ≤ -4.2 |
| C38U A64C G83A A122C | ≤ -4.2 |

| Variant | polymerase ribozyme fitness (log ratio) |
| --- | --- |
| C38U A64U A73U G80U A97C A150C | ≤ -4.2 |
| C38U A66G C95U G136A | ≤ -4.2 |
| C38U A66G G92U C108A G136U | ≤ -4.2 |
| C38U A66U A73C C96A | ≤ -4.2 |
| C38U A73G U101A | -0.277 |
| C38U A73U A138C U148A | ≤ -4.2 |
| C38U A73U C93U A107U G117U | ≤ -4.2 |
| C38U A73U U77A C85A C99G G124C A142G | ≤ -4.2 |
| C38U A98U C99G A106C C149G | ≤ -4.2 |
| C38U A120U A142U | -0.329 |
| C38U C43U U44A C51U C93U | ≤ -4.2 |
| C38U C43U U56A G71C U90G G117A | ≤ -4.2 |
| C38U C51U G59A A91C G141C U146G | ≤ -4.2 |
| C38U C54A C57G G143A | -4.08 |
| C38U C57G C75U G86A U148A | ≤ -4.2 |
| C38U C57G C76A G81U A89C A91U | ≤ -4.2 |
| C38U C57U C93A A97C C132G | ≤ -4.2 |
| C38U C63U A73G C118U A150G | -2.88 |
| C38U C79G C87G | ≤ -4.2 |
| C38U C79G G84A A150G | ≤ -4.2 |
| C38U C85U A107U C125G A147C | ≤ -4.2 |
| C38U C85U U146G | -0.571 |
| C38U C87A A113U G124A | ≤ -4.2 |
| C38U C87G A137G A142C G143A | ≤ -4.2 |

| Variant | polymerase ribozyme fitness (log ratio) |
| --- | --- |
| C38U C93A U151A | ≤ -4.2 |
| C38U C93U | -1.06 |
| C38U C95A C103U G143A | -3.18 |
| C38U C95G A120U G152A | -3.59 |
| C38U C96A G141A | -0.0442 |
| C38U C99U U109G A113C | ≤ -4.2 |
| C38U C105G G128C | ≤ -4.2 |
| C38U G42A C75G A91G C95U C105U A113U C118G | ≤ -4.2 |
| C38U G42C A52U U61G G133U | ≤ -4.2 |
| C38U G42C A142G | ≤ -4.2 |
| C38U G46A G48A C87G A89C U102G A106U | ≤ -4.2 |
| C38U G48A A60C C72G C96A C99U C114G U139G U148G | ≤ -4.2 |
| C38U G50A | -2.15 |
| C38U G50C C54U G65C C87U C99G | ≤ -4.2 |
| C38U G58A G86A C93U C96A C131A | -2.97 |
| C38U G58C A91C G94A A97G G141A | ≤ -4.2 |
| C38U G58U G100C | ≤ -4.2 |
| C38U G59C A64U G68A C85U G126A U127C | ≤ -4.2 |
| C38U G59C G81C C95G C116G | -1.71 |
| C38U G62C C69A G88U C116A | ≤ -4.2 |
| C38U G62C G94U | -3.3 |
| C38U G67C C72G G80A A91G A98U U134G | ≤ -4.2 |
| C38U G70A | -2.9 |
